The subject of this experiment is MLKL phosphorylation, HT29-L23 human colorectal adenocarcinoma cells. The experiment in a line: cells. The conditions noted are these: read-out: pMLKL HCS Cell Assay (IC50, uM).
`CC(O)(CC(=O)N1C[C@H](F)[C@H](NC(=O)c2cc(-c3cc(C(F)(F)F)c4c(N)ncnn34)cc(F)c2F)C1)C(F)(F)F` (stereo partly drawn) [Example 1334, 5-[4-amino-5-(trifluoromethyl)pyrrolo-[2,1-f][1,2,4]triazin-7-yl]-2,3-difluoro-N-[(3R,4S)-4-fluoro-1-(4,4,4-trifluoro-3-hydroxy-3-methylbutanoyl)pyrrolidin-3-yl]benzamide]: the IC50 is 0.0087 µM. With `Cc1cc(F)c(-c2cc(CN3CCC(F)(F)CC3)c3c(N)ncnn23)cc1C(=O)N[C@@H]1CN(C(=O)C(C)(C)F)C[C@@H]1F` [Example 1660, 5-{4-amino-5-[(4,4-difluoropiperidin-1-yl)methyl]pyrrolo[2,1-f][1,2,4]triazin-7-yl}-4-fluoro-N-[(3R,4S)-4-fluoro-1-(2-fluoro-2-methylpropanoyl)pyrrolidin-3-yl]-2-methylbenzamide], the IC50 came out at 0.00079 µM. The figure for `Nc1ncnn2c(-c3cnc(F)c(C(=O)Nc4cnn(Cc5ccccc5)c4)c3)cc(C(F)(F)F)c12` [Example 270, 5-[4-amino-5-(trifluoromethyl)pyrrolo[2,1-f][1,2,4]triazin-7-yl]-N-(1-benzyl-1H-pyrazol-4-yl)-2-fluoropyridine-3-carboxamide] is 0.0011 µM; for `Nc1ncnn2c(-c3ccc(CF)c(C(=O)N[C@@H]4CN(C(=O)CC(C(F)(F)F)C(F)(F)F)C[C@@H]4F)c3)cc(C(F)(F)F)c12` [Example 915, 5-[4-amino-5-(trifluoromethyl)pyrrolo[2,1-f][1,2,4]triazin-7-yl]-N-[(3R,4S)-4-fluoro-1-[4,4,4-trifluoro-3-(trifluoromethyl)butanoyl]pyrrolidin-3-yl]-2-(fluoromethyl)benzamide] it is 0.0018 µM; for `Cc1cc(C(=O)N2C[C@H](F)[C@H](NC(=O)c3cc(-c4cc(C(F)(F)F)c5c(N)ncnn45)c(F)cc3C)C2)c(F)cn1` [Example 820, 5-[4-amino-5-(trifluoromethyl)pyrrolo[2,1-f][1,2,4]triazin-7-yl]-4-fluoro-N-[(3R,4S)-4-fluoro-1-(5-fluoro-2-methylpyridine-4-carbonyl)pyrrolidin-3-yl]-2-methylbenzamide] it is 0.016 µM. Consider `Nc1ncnn2c(-c3cccc(C(=O)N[C@@H]4CN(C(=O)C5(O)CCCC5)C[C@@H]4F)c3)cc(C(F)(F)F)c12` [Example 84, 3-[4-amino-5-(trifluoromethyl)pyrrolo[2,1-f][1,2,4]triazin-7-yl]-N-[(3R,4S)-4-fluoro-1-(1-hydroxycyclopentanecarbonyl)pyrrolidin-3-yl]benzamide], for which the IC50 stood at 0.07 µM. The value for `Nc1ncnn2c(-c3cc(C(=O)N[C@@H]4CN(C(=O)C5CC5(F)F)C[C@@H]4F)ccc3F)cc(C(F)(F)F)c12` (stereo partly drawn) [Example 423, 3-[4-amino-5-(trifluoromethyl)pyrrolo [2,1-f][1,2,4]triazin-7-yl]-N-[(3R,4S)-1-(2,2-difluorocyclopropanecarbonyl)-4-fluoropyrrolidin-3-yl]-4-fluoro-benzamide] was 0.047 µM. The figure for `[2H]C([2H])([2H])Oc1ncc(-c2cc(CN3CC(F)(F)C3)c3c(N)ncnn23)cc1C(=O)N[C@@H]1CN(S(=O)(=O)c2ccccc2OC)C[C@@H]1F` [Example 1295, 5-{4-amino-5-[(3,3-difluoroazetidin-1-yl)methyl]pyrrolo[2,1-f][1,2,4]triazin-7-yl}-N-[(3R,4S)-4-fluoro-1-(2-methoxybenzenesulfonyl)pyrrolidin-3-yl]-2-(methoxy-d3)nicotinamide] is 0.00061 µM. For `COc1ncc(-c2cc(C(F)(F)F)c3c(N)ncnn23)cc1C(=O)N[C@@H]1CN(S(=O)(=O)C2CCCCC2O)C[C@@H]1F` (stereo partly drawn) [Example 1483, 5-[4-amino-5-(trifluoromethyl)pyrrolo[2,1-f][1,2,4]triazin-7-yl]-N-[(3R,4S)-4-fluoro-1-[(2-hydroxycyclohexyl)sulfonyl]pyrrolidin-3-yl]-2-methoxypyridine-3-carboxamide], the IC50 was 0.0052 µM. `COc1ncc(-c2cc(C(F)(F)F)c3c(N)ncnn23)cc1C(=O)Nc1cn(Cc2ccccc2)cn1` [Example 1723, 5-(4-amino-5-(trifluoromethyl)pyrrolo[2,1-f][1,2,4]triazin-7-yl)-N-(1-benzyl-1H-imidazol-4-yl)-2-methoxynicotinamide]: the IC50 was 0.0031 µM. As to `COc1ncc(-c2cc(C(F)(F)F)c3c(N)ncnn23)cc1C(=O)N[C@@H]1CN(C(=O)COC(C)(C)C)C[C@@H]1F` [Example 1218, 5-[4-amino-5-(trifluoromethyl)pyrrolo[2,1-f][1,2,4]triazin-7-yl]-N-[(3R,4S)-1-[2-(tert-butoxy)acetyl]-4-fluoropyrrolidin-3-yl]-2-methoxypyridine-3-carboxamide], the IC50 was 0.098 µM. With `COc1cc(C(=O)N[C@@H]2CN(C(=O)c3ccccc3F)C[C@@H]2F)cc(-c2cc(C(F)(F)F)c3c(N)ncnn23)c1` [Example 572, 3-[4-amino-5-(trifluoromethyl)pyrrolo[2,1-f][1,2,4]triazin-7-yl]-N-[(3R,4S)-4-fluoro-1-(2-fluorobenzoyl)pyrrolidin-3-yl]-5-methoxybenzamide], the IC50 came out at 0.0028 µM. As to `COc1ncc(-c2cc(C(F)(F)F)c3c(N)ncnn23)cc1C(=O)N[C@@H]1CN(CC(O)C(F)(F)F)C[C@@H]1F` (single isomer, unassigned) [Example 44-1], the IC50 stood at 0.0093 µM. The value for `COc1ncc(-c2cc(C(F)(F)F)c3c(N)ncnn23)cc1C(=O)NC1CN(Cc2nnnn2C2CC2)CC1F` (racemic) [Example 212, 5-[4-amino-5-(trifluoromethyl)pyrrolo[2,1-f][1,2,4]triazin-7-yl]-N-{1-[(1-cyclopropyl-1H-1,2,3,4-tetrazol-5-yl)methyl]-4-fluoropyrrolidin-3-yl}-2-methoxypyridine-3-carboxamide] was 0.479 µM.

Take `COc1c(F)cc(-c2cc(C(F)(F)F)c3c(N)ncnn23)cc1C(=O)N[C@@H]1CN(C(=O)C2CC2(F)F)C[C@@H]1F` (stereo partly drawn) [Example 697, 5-[4-amino-5-(trifluoromethyl)pyrrolo[2,1-f][1,2,4]triazin-7-yl]-N-[(3R,4S)-1-(2,2-difluorocyclopropanecarbonyl)-4-fluoropyrrolidin-3-yl]-3-fluoro-2-methoxybenzamide]: the IC50 is 0.032 µM. The figure for `Cc1cc(F)c(-c2cc(C(F)(F)F)c3c(N)ncnn23)cc1C(=O)N[C@@H]1CN(C(=O)c2ccc(F)cc2Cl)C[C@@H]1F` [Example 809, 5-[4-amino-5-(trifluoromethyl)pyrrolo[2,1-f][1,2,4]triazin-7-yl]-N-[(3R,4S)-1-(2-chloro-4-fluorobenzoyl)-4-fluoropyrrolidin-3-yl]-4-fluoro-2-methylbenzamide] is 0.015 µM; for `COc1ncc(-c2cc(C(F)(F)F)c3c(N)ncnn23)cc1C(=O)N[C@H](C)c1cc(C(F)(F)F)ccc1F` [Example 1351, 5-[4-amino-5-(trifluoromethyl)pyrrolo[2,1-f][1,2,4]triazin-7-yl]-N-[(1R)-1-[2-fluoro-5-(trifluoromethyl)phenyl]ethyl]-2-methoxypyridine-3-carboxamide] it is 0.029 µM; for `Nc1ncnn2c(-c3cccc(C(=O)N[C@H]4CCN(Cc5ccccc5)C4)c3)cc(C(F)(F)F)c12` [Example 78, 3-[4-amino-5-(trifluoromethyl)pyrrolo[2,1-f][1,2,4]triazin-7-yl]-N-[(3S)-1-benzylpyrrolidin-3-yl]benzamide] it is 0.113 µM. As to `COc1ncc(-c2cc(C(F)(F)F)c3c(N)ncnn23)cc1C(=O)NC1CN(CCCC(F)(F)F)CC1F` (racemic) [Example 198, 5-[4-amino-5-(trifluoromethyl)pyrrolo[2,1-f][1,2,4]triazin-7-yl]-N-[4-fluoro-1-(4,4,4-trifluorobutyl)pyrrolidin-3-yl]-2-methoxypyridine-3-carboxamide], the IC50 was 0.014 µM. For the compound `Cc1ncc(-c2cc(C(F)(F)F)c3c(N)ncnn23)cc1C(=O)Nc1cnn(Cc2ccccc2)c1` [Example 166, 5-[4-amino-5-(trifluoromethyl)pyrrolo[2,1-f][1,2,4]triazin-7-yl]-N-(1-benzyl-1H-pyrazol-4-yl)-2-methylpyridine-3-carboxamide], the IC50 turned out to be 0.00085 µM.

Turning to `Nc1ncnn2c(-c3cc(F)c(CF)c(C(=O)N[C@@H]4CN(C(=O)C5CC(F)C5)C[C@@H]4F)c3)cc(C(F)(F)F)c12` (stereo partly drawn) [Example 616, 5-(4-amino-5-(trifluoromethyl)pyrrolo[2,1-f][1,2,4]triazin-7-yl)-3-fluoro-N-((3R,4S)-4-fluoro-1-(3-fluorocyclobutane-1-carbonyl)pyrrolidin-3-yl)-2-(fluoromethyl)benzamide], the IC50 was determined as 0.0025 µM.

On to `Cc1cc(F)c(-c2cc(C(F)(F)F)c3c(N)ncnn23)cc1C(=O)N[C@@H]1CN(C(=O)[C@@H](O)C(F)(F)F)C[C@@H]1F` [Example 415, 5-[4-amino-5-(trifluoromethyl)pyrrolo[2,1-f][1,2,4]triazin-7-yl]-4-fluoro-N-[(3R,4S)-4-fluoro-1-[(2R)-3,3,3-trifluoro-2-hydroxy-propanoyl]pyrrolidin-3-yl]-2-methylbenzamide], for which the IC50 was determined as 0.018 µM. `COc1ncc(-c2cc(CN3CCC(F)(F)CC3)c3c(N)ncnn23)cc1C(=O)NC1CN(S(=O)(=O)C(C)C(F)(F)F)C[C@@H]1F` (stereo partly drawn) [Example 1543, 5-{4-amino-5-[(4,4-difluoropiperidin-1-yl)methyl]pyrrolo[2,1-f][1,2,4]triazin-7-yl}-N-[(3R,4S)-4-fluoro-1-(1,1,1-trifluoropropane-2-sulfonyl)pyrrolidin-3-yl]-2-methoxypyridine-3-carboxamide]: the IC50 came out at 0.0032 µM. The figure for `Cc1ncc(-c2cc(C(F)(F)F)c3c(N)ncnn23)cc1C(=O)NCC(C)(O)C(O)c1cccc(F)c1` (stereo not shown) [Example 1758, 5-(4-amino-5-(trifluoromethyl)pyrrolo[2,1-f][1,2,4]triazin-7-yl)-N-(3-(3-fluorophenyl)-2,3-dihydroxy-2-methylpropyl)-2-methylnicotinamide] is 0.018 µM; for `Nc1ncnn2c(-c3ccc(F)c(C(=O)Nc4cnn(Cc5ccccc5)c4)c3)cc(C(F)(F)F)c12` [Example 3, 5-[4-amino-5-(trifluoromethyl)pyrrolo[2,1-f][1,2,4]triazin-7-yl]-N-(1-benzyl-1H-pyrazol-4-yl)-2-fluorobenzamide] it is 0.005 µM.

A word on the IC50: it is the concentration at which inhibition is half-maximal.

For the origin of these results see patent publication US11618753B2 (priority 2018, dated 2023).
